Results taken from publication PMC6484760.
These are yes or no findings as the source states them, for the method shown. For some of these results: Binding seen in cells or lysates may run through a third protein. Some binding calls cover weakened binding; strength is not graded here. For some of these results: Sequences can lack the tags named with a protein.

The chains behind the UniProt entries cited, without tags or fusion partners. Residues count along the entry.
UniProt Q09472: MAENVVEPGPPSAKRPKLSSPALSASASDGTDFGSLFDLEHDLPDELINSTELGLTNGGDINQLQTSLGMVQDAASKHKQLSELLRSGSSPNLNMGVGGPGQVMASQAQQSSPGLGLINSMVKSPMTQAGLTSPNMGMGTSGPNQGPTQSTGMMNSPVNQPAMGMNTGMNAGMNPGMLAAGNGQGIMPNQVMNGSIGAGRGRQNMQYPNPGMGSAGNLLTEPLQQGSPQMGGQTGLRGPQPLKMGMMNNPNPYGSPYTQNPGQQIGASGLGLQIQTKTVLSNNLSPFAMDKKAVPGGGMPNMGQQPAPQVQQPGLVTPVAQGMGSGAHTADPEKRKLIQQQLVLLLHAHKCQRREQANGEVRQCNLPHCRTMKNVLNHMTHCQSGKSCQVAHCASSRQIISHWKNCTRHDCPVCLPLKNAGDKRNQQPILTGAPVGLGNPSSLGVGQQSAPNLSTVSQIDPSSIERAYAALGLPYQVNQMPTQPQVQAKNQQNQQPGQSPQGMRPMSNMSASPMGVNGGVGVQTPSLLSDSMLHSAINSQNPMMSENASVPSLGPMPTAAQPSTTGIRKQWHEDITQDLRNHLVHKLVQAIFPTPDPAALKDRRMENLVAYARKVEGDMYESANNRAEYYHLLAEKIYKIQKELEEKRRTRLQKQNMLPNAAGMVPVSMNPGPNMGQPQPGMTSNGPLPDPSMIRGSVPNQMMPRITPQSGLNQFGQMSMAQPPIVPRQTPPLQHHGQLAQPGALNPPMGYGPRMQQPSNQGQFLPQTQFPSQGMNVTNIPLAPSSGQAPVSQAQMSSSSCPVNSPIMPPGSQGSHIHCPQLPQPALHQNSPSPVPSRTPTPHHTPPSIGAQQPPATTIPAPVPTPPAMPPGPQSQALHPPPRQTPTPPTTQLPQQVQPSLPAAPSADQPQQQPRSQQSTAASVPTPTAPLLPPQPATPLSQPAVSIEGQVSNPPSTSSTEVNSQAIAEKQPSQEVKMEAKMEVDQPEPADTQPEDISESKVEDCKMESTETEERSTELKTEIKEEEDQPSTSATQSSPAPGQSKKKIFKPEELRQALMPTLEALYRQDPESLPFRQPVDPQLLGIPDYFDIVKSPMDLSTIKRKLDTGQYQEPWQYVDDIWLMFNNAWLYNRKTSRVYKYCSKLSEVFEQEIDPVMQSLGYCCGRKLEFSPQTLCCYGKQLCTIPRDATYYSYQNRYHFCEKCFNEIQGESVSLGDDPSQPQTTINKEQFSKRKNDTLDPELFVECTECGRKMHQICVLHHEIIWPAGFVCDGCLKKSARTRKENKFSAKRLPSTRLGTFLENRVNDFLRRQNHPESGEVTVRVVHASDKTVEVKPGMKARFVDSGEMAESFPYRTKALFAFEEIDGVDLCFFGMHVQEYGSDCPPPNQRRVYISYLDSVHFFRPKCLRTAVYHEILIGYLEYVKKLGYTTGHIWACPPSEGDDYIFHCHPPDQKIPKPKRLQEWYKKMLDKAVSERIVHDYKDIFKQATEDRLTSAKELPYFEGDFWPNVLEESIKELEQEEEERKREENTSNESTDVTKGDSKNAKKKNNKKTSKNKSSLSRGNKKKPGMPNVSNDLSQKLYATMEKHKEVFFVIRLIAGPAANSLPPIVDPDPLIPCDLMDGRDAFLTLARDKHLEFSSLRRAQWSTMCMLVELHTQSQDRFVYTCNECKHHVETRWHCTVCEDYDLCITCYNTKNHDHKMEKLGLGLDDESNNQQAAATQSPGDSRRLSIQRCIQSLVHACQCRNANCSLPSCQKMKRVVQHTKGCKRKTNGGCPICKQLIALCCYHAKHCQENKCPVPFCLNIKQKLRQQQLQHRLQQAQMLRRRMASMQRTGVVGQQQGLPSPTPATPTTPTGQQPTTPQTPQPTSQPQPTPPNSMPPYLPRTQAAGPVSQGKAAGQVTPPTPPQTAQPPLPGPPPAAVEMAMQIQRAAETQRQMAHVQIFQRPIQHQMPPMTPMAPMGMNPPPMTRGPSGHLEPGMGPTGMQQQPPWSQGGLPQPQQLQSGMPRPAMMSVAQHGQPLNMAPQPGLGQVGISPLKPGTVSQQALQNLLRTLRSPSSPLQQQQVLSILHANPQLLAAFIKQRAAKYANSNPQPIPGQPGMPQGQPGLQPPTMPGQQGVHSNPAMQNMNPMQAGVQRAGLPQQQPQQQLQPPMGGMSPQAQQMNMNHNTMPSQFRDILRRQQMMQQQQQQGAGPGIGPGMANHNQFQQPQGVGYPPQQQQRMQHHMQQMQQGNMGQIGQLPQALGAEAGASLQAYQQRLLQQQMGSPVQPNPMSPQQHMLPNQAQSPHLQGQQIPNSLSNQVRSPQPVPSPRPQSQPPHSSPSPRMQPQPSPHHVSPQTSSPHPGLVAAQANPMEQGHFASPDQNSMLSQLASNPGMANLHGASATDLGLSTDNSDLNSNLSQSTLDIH
UniProt Q9NPF5: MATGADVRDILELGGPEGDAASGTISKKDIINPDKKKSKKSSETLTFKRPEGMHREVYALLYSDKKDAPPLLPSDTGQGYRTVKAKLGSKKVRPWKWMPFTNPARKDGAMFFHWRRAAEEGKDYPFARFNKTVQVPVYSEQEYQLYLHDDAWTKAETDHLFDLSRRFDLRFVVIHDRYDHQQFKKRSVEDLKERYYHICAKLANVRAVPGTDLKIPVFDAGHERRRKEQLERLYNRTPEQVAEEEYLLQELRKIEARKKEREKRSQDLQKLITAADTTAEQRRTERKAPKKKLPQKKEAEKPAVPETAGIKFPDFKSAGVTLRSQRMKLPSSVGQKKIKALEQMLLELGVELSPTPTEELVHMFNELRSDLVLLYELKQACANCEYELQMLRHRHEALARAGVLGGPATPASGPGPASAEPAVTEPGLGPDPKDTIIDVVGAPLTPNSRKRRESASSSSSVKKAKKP
UniProt P19883, residues 30-344: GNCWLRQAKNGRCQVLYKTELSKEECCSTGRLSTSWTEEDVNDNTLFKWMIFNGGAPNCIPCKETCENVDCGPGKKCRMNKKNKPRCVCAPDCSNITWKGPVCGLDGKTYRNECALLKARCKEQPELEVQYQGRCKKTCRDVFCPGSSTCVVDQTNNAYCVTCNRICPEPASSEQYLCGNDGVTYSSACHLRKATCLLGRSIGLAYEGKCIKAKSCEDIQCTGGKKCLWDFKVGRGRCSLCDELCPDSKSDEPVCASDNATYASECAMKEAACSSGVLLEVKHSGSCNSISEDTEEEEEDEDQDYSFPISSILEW
UniProt Q92769: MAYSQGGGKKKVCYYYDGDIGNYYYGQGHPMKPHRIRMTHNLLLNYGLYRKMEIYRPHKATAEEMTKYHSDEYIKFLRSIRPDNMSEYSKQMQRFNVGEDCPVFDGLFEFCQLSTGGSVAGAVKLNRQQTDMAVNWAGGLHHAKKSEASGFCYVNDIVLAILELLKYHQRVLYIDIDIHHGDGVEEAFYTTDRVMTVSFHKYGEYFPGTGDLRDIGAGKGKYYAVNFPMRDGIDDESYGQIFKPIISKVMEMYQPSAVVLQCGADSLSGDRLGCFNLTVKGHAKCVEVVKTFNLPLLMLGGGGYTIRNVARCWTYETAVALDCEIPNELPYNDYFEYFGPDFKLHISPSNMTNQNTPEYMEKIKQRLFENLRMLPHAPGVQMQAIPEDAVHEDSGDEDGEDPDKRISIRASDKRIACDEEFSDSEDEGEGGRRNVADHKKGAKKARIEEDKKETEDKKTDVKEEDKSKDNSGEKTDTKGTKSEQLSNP
UniProt Q13705, residues 19-512: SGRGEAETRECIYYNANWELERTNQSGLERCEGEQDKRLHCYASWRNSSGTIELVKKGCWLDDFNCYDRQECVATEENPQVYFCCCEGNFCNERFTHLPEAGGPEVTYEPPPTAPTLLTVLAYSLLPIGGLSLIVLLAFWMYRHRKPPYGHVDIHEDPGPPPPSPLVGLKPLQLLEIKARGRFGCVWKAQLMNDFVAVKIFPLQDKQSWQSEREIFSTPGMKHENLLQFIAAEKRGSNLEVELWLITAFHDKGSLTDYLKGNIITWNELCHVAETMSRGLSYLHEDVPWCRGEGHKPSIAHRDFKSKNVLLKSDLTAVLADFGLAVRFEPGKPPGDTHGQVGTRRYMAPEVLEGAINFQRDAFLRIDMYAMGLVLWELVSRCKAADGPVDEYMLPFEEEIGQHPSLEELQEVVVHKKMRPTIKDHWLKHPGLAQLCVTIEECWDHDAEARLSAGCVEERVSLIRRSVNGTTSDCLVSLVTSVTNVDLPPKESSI

B1: CD14 in GBM cells (protein, UniProt P08571 20-345)
chain: TTPEPCELDDEDFRCVCNFSEPQPDWSEAFQCVSAVEVEIHAGGLNLEPFLKRVDADADPRQYADTVKALRVRRLTVGAAQVPAQLLVGALRVLAYSRLKELTLEDLKITGTMPPLPLEATGLALSSLRLRNVSWATGRSWLAELQQWLKPGLKVLSIAQAHSPAFSCEQVRAFPALTSLDLSDNPGLGERGLMAALCPHKFPAIQNLALRNTGMETPTGVCAALAAAGVQPHSLDLSHNSLRATVNPSAPRCMWSSALNSLNLSFAGLEQVPKGLPAKLRVLDLSCNRLNRAPQPDELPEVDNLTLDGNPFLVPGTALPHEGSMN
B2: Fstl1 (follistatin-like protein 1) in GBM cells (protein, UniProt Q12841 21-308)
chain: EEELRSKSKICANVFCGAGRECAVTEKGEPTCLCIEQCKPHKRPVCGSNGKTYLNHCELHRDACLTGSKIQVDYDGHCKEKKSVSPSASPVVCYQSNRDELRRRIIQWLEAEIIPDGWFSKGSNYSEILDKYFKNFDNGDSRLDSSEFLKFVEQNETAINITTYPDQENNKLLRGLCVDALIELSDENADWKLSFQEFLKCLNPSFNPPEKKCALEDETYADGAETEVDCNRCVCACGNWVCTAMTCDGKNQKGAQTQTEEEMTRYVQELQKHQETAEKTKRVSTKEI

Key:
[1] = target: FLAG-tagged wild-type DIP2A (WT), expressed in D54 cells (UniProt Q14689); assay: co-IP; D54 cells transfected with flag-DIP2A, flag-A-DIP2A or flag-B-DIP2A, 48 h after transfection
[2] = target: DIP2A expressed from DIP2A expression constructs in D54 cells (size-exclusion chromatography) (UniProt Q14689); assay: SEC; 5 mg total protein of lysate from D54 cells transfected with DIP2A; Superose 6 Increase 10/300, phosphate-buffered saline, 0.5 ml/min; 500 μl fractions immunoblotted
[3] = target: DIP2A (disco-interacting protein 2 homolog A), endogenous in GBM cells (human (endogenous in D54 and other GBM cells)) (UniProt Q14689); assay: co-IP; endogenous proteins; D54 cell lysate with anti-DIP2A or IgG, nuclear extracts of GBM cells with anti-HDAC2 or IgG; also cells transfected with Fstl1 or vector (D54), shFstl1-7 or shCtrl (05MG)
[4] = target: T1, flag-Fstl1 expressed in D54 cells (UniProt Q12841); assay: co-IP; total, membrane, cytoplasmic and nuclear extracts of D54 cells transfected with flag-Fstl1; anti-flag antibody
T1 sequence: B2 chain

[5] = target: T2, Fstl1 (follistatin-like protein 1) in GBM cells (human (endogenous in GBM cells)) (UniProt Q12841); assay: co-IP; co-IP of Fstl1 and partners from GBM cells (Supplementary Figs. 9 and 10), Co-IP kit (Thermo Scientific); details in the Supplementary Material
T2 sequence: B2 chain

[6] = target: T3, FLAG-Fstl1 (follistatin-like protein 1), immobilized fusion protein (UniProt Q12841); assay: pull-down; FLAG fusion protein immobilized on anti-FLAG M2 agarose beads, incubated with D54 whole-cell extract; binding buffer 25 mM HEPES pH 7.9, 150 mM NaCl, 0.5 mM EDTA, 10% glycerol, 0.1% Triton X-100, 0.1 mg/ml BSA, 1 mM DTT; 2 h at 4 °C; western blot; only the target purified
T3 sequence: B2 chain

[7] = target: T4, FLAG-A-DIP2A, the DMAP1-binding domain spanning the first 150 amino acids of DIP2A, expressed in D54 cells (UniProt Q14689); assay: co-IP; D54 cells transfected with flag-DIP2A, flag-A-DIP2A or flag-B-DIP2A, 48 h after transfection
T4 sequence: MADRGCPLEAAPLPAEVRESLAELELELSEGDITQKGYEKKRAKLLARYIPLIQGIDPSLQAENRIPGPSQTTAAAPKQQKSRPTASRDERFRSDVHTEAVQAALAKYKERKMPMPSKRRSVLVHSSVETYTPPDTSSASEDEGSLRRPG

[8] = target: T5, FLAG-B-DIP2A, the posterior portion of DIP2A spanning amino acids 124-1571, expressed in D54 cells (UniProt Q14689); assay: as above
T5 sequence: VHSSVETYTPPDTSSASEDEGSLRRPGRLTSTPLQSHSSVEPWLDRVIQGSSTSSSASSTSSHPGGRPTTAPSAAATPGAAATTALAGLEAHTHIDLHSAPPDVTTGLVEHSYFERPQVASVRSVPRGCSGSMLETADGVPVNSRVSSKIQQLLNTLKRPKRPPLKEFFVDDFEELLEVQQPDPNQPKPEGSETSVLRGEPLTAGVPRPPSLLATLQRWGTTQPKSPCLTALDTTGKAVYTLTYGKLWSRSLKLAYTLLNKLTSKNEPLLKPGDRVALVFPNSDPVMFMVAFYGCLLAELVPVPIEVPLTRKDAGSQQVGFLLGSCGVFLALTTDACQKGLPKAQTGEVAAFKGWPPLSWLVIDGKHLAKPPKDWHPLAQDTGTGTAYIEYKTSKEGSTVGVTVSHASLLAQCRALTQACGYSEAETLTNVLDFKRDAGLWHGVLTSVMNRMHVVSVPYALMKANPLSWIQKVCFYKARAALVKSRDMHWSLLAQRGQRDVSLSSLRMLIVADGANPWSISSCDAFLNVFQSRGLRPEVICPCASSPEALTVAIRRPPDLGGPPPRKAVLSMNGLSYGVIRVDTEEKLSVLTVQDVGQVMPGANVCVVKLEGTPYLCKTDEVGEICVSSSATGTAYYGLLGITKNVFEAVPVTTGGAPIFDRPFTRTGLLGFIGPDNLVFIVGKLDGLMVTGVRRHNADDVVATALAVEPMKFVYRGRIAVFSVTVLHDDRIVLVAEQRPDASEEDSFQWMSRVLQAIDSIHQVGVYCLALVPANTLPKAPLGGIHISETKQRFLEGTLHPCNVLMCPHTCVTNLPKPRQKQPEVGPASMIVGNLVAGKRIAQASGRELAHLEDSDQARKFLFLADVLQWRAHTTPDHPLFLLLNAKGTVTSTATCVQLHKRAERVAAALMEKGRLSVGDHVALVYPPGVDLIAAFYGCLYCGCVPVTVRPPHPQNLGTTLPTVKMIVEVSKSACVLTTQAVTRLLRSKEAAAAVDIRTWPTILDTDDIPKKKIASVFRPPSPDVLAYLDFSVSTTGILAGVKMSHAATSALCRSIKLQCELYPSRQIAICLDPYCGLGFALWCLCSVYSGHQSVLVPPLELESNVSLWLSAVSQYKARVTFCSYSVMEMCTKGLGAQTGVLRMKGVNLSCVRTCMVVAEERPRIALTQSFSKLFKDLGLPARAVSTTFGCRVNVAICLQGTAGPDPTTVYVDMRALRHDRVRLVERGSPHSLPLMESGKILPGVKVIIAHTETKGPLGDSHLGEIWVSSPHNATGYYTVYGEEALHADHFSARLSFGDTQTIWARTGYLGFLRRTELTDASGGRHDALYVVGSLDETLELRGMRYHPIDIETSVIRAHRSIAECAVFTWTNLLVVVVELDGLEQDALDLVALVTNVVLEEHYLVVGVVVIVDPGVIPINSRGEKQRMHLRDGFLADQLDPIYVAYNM

[9] = target: p300 in GBM cells (human (endogenous in GBM cells)) (UniProt Q09472); assay: co-IP; co-IP of Fstl1 and partners from GBM cells (Supplementary Figs. 9 and 10), Co-IP kit (Thermo Scientific); details in the Supplementary Material

| Molecule | binding [5] | binding [6] | other results |
| --- | --- | --- | --- |
| DMAP1 (DNA methyltransferase 1-associated protein 1), endogenous in GBM cells (from UniProt Q9NPF5 1-467) |  |  | binding [1]: binds; binding [2]: binds; binding [3]: binds |
| DIP2A (disco-interacting protein 2 homolog A), endogenous in GBM cells (from UniProt Q14689 1-1571) | binds | binds | binding [4]: binds |
| follistatin in GBM cells (from UniProt P19883 30-344) | binds | binds |  |
| p300 in GBM cells (from UniProt Q09472 1-2414) | no binding |  |  |
| HDAC2 (histone deacetylase 2), endogenous in GBM cells (from UniProt Q92769 1-488) (enzyme) |  |  | binding [7]: no binding; binding [8]: no binding |
| ActR-IIB in GBM cells (from UniProt Q13705 19-512) (receptor) | binds | binds |  |
| B1 | binds | binds |  |
| B2 |  |  | binding [9]: no binding |
